According to the supplement of paper PMC10126150:
Sequences with one replicate were seen in a single cluster, so their values are uncertain.

System: ATP
Assay: switch fluorescence ratio, 500 uM ATP over buffer (Cy3 cluster intensity, sum of 5 cycles each) (fold (ratio)); higher = stronger signal-on switching upon ATP binding; sequences stand for … in TCGTCGGCAGCGTCAGATGTGTATAAGAGACAGTTTTTTTTTTTTTTTTTTTTTTTTT…TC
Details: aptamer strand: ATP DNA aptamer (quencher-CACCTGGGGGAGTATTGCGGAGGAAGG + anchor), 100 nM annealed; ATP concentration: 500 uM; one replicate
Procedure, shortened: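 Cy3-labelled switching-strand clusters on a modified Illumina MiSeq flow-cell were annealed to 100 nM quencher-labelled ATP aptamer and imaged first in selection buffer, then after 15 min with 500 uM ATP at 22 °C. NaOH stripping and re-annealing separated each of five buffer/ATP cycles, and clusters outside 100-1000 RFU were excluded. The fluorescence ratio sums target-cycle Cy3 intensity over buffer-cycle Cy3 intensity per cluster and averages it per switch-domain sequence.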
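Note: ATP exposure 15 min at 22 °C before imaging.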

| Sequence | switch fluorescence ratio |
| --- | --- |
| AATAGGAGAT | 0.966 |
| AATAGGCCTT | 0.992 |
| AATAGGCTTT | 1.02 |
| AATAGGGGCG | 0.977 |
| AATAGGTCGG | 0.983 |
| AATAGTATTC | 1.02 |
| AATAGTGCTT | 0.998 |
| AATATAACAT | 1.01 |
| AATATAAGTA | 0.997 |
| AATATAT | 1 |
| AATATATAGT | 0.984 |
| AATATCCT | 1.01 |
| AATATGAAGT | 0.963 |
| AATATGCACT | 1.09 |
| AATATGCTGG | 0.998 |
| AATATTGTAC | 0.998 |
| AATCAAATGG | 1.05 |
| AATCAACAGA | 1.02 |
| AATCAATCCG | 0.997 |
| AATCATAGGT | 1 |
| AATCATCGAC | 1.01 |
| AATCCATTCC | 1.55 |
| AATCCGCGCC | 3.69 |
| AATCCGGTT | 1.02 |
| AATCCGTTAG | 1.05 |
| AATCCTAAAA | 0.984 |

| Sequence | switch fluorescence ratio |
| --- | --- |
| AATCCTGTAG | 1.07 |
| AATCCTGTGT | 0.943 |
| AATCGATCGA | 1.07 |
| AATCGCGGA | 1.03 |
| AATCGGAAGC | 0.985 |
| AATCGGTACG | 0.962 |
| AATCGTGGA | 0.975 |
| AATCTATTGA | 1 |
| AATCTGAGGA | 1.03 |
| AATCTTAATA | 0.976 |
| AATCTTAATT | 0.943 |
| AATGAACATC | 1.02 |
| AATGACAACT | 1 |
| AATGACGGAA | 1.05 |
| AATGCCCAGG | 3.68 |
| AATGCCCTAT | 0.97 |
| AATGCCGCGC | 1.07 |
| AATGCCTCTC | 1 |
| AATGCCTTGT | 1 |
| AATGCGACTG | 0.999 |
| AATGCGCCTT | 1.02 |
| AATGCGGGAG | 0.969 |
| AATGCGTTAT | 0.997 |
| AATGCTCTGA | 1.03 |
| AATGGAAGTG | 0.945 |
| AATGGAGGCA | 1.06 |

| Sequence | switch fluorescence ratio |
| --- | --- |
| AATGGATTCC | 1.02 |
| AATGGCAGTT | 1.01 |
| AATGGCCGC | 0.961 |
| AATGGGGGC | 0.977 |
| AATGGGTGTA | 1.03 |
| AATGGTAAGA | 0.969 |
| AATGGTACTC | 1.04 |
| AATGGTTGAT | 0.975 |
| AATGTACGGA | 1.11 |
| AATGTAGGTT | 1 |
| AATGTATTTG | 1.02 |
| AATGTCCCGG | 0.978 |
| AATGTCCTCA | 1.01 |
| AATGTCGCTT | 1.01 |
| AATGTGGGAG | 1.01 |
| AATGTGTAGA | 1.07 |
| AATGTTAGG | 1.04 |
| AATGTTAGGG | 0.992 |
| AATGTTCGG | 0.973 |
| AATGTTCTAG | 1 |
| AATTAAAAG | 1.04 |
| AATTAAATTT | 1.05 |
| AATTAATAAT | 0.975 |
| AATTAGAGCG | 1.01 |
| AATTAGCAA | 1.68 |
| AATTAGCAGT | 1.04 |

| Sequence | switch fluorescence ratio |
| --- | --- |
| AATTAGCCTA | 0.979 |
| AATTAGCGG | 0.995 |
| AATTAGTGCG | 0.981 |
| AATTAGTTCT | 0.99 |
| AATTATCGCT | 1.05 |
| AATTCACATA | 1.04 |
| AATTCATAGG | 1.01 |
| AATTCCACTT | 1.03 |
| AATTCGCTCC | 1.15 |
| AATTCGGAGA | 1.01 |
| AATTCGGAGT | 1 |
| AATTCGGCAA | 1.75 |
| AATTCGTTTG | 0.964 |
| AATTCTAGAC | 1.02 |
| AATTCTTCCA | 1.05 |
| AATTGAAAGT | 1.05 |
| AATTGAAGGT | 0.954 |
| AATTGAGCCA | 0.988 |
| AATTGCCGTC | 1 |
| AATTGCTACT | 0.972 |
| AATTGGACTC | 1 |
| AATTGGGG | 0.99 |
| AATTGTAACA | 1.04 |
| AATTGTAGCG | 0.965 |
| AATTGTCACC | 0.997 |
| AATTGTCAGC | 0.976 |

| Sequence | switch fluorescence ratio |
| --- | --- |
| AATTGTCCCG | 0.991 |
| AATTTAGAAA | 0.936 |
| AATTTAGCCT | 1.12 |
| AATTTCTGCC | 1.01 |
| AATTTCTTCC | 2.05 |
| AATTTGCATT | 1.04 |
| AATTTGCGTG | 0.965 |
| AATTTGCTAT | 1.01 |
| AATTTGTGA | 0.977 |
| AATTTTATCC | 1.05 |
| AATTTTTTAC | 0.994 |
| ACAAAAAAGA | 0.994 |
| ACAAAAACGC | 1.03 |
| ACAAAAATCG | 1.08 |
| ACAAAAGAGG | 0.981 |
| ACAAAATGGG | 1.01 |
| ACAAACACTA | 1.2 |
| ACAAACGAAT | 1.25 |
| ACAAAGGGGC | 0.994 |
| ACAAATAGAT | 1.03 |
| ACAAATCCGA | 0.937 |
| ACAAATGTCG | 0.943 |
| ACAAATTCAA | 0.985 |
| ACAAATTTGC | 0.958 |
| ACAACACCTT | 1.29 |
| ACAACAGATC | 1.03 |

| Sequence | switch fluorescence ratio |
| --- | --- |
| ACAACGCCTC | 1.27 |
| ACAACGTTTG | 1 |
| ACAAGAAAAG | 1.06 |
| ACAAGACT | 1.14 |
| ACAAGCCTTA | 1.02 |
| ACAAGGCTAG | 1.04 |
| ACAAGTAGGG | 1.01 |
| ACAAGTGCTA | 1.01 |
| ACAATACTGG | 1.27 |
| ACAATACTTG | 1.09 |
| ACAATCACTG | 1.22 |
| ACAATCGCAA | 2.18 |
| ACAATGGAGG | 1.02 |
| ACAATGGCAG | 1.02 |
| ACAATTACCA | 1.14 |
| ACAATTTAGA | 1.01 |
| ACACAATCCA | 1.01 |
| ACACACATCG | 1.21 |
| ACACAGACGG | 1.61 |
| ACACATCTTA | 1.02 |
| ACACATTATT | 0.985 |
| ACACCCTATT | 1.08 |
| ACACCGCGAT | 3.81 |
| ACACCGGTCA | 0.991 |
| ACACCTCTAA | 1.08 |
| ACACGACATA | 1.26 |

| Sequence | switch fluorescence ratio |
| --- | --- |
| ACACGCACCC | 1.57 |
| ACACGCATCA | 1.19 |
| ACACGCGTAA | 1.06 |
| ACACGCGTGT | 0.995 |
| ACACGGAGTA | 1.02 |
| ACACGGCCCG | 1.05 |
| ACACGGCTAA | 0.987 |
| ACACGTCAAG | 1.08 |
| ACACGTGCG | 1.04 |
| ACACGTTACT | 1.6 |
| ACACTGTTGC | 1.02 |
| ACACTTAAAA | 0.991 |
| ACACTTGG | 1.05 |
| ACACTTTAAA | 1.02 |
| ACAGAAAGGC | 1.07 |
| ACAGAAGAGT | 0.976 |
| ACAGAAGGCG | 1.04 |
| ACAGACCCGG | 0.987 |
| ACAGAGACGA | 1.01 |
| ACAGAGCCTA | 0.975 |
| ACAGAGGGGA | 1.03 |
| ACAGAGGTGT | 1.03 |
| ACAGATAGTT | 1.03 |
| ACAGCAGTCG | 1.05 |
| ACAGCCCTTA | 1.05 |
| ACAGCGATCA | 1.07 |

| Sequence | switch fluorescence ratio |
| --- | --- |
| ACAGCTATGC | 1.09 |
| ACAGCTGCTG | 1.03 |
| ACAGCTTTTA | 1.03 |
| ACAGGAAGCC | 0.986 |
| ACAGGAATCA | 1.03 |
| ACAGGCGTT | 1.01 |
| ACAGGGCAGG | 1.13 |
| ACAGGGCCGG | 0.991 |
| ACAGGGCGCG | 1.03 |
| ACAGGGGT | 1.16 |
| ACAGGGGTAC | 1.06 |
| ACAGGGTTAG | 1.01 |
| ACAGGTAATG | 0.999 |
| ACAGGTATTG | 1 |
| ACAGTAGAAT | 1.02 |
| ACAGTAGAGG | 1.09 |
| ACAGTCGCGT | 1.06 |
| ACAGTCTGAA | 0.957 |
| ACAGTGGCAG | 0.967 |
